Reference: PubChem BioAssay AID686979 (National Center for Advancing Translational Sciences (NCATS), 2013)
“And” between values parts separate entries of the source, which are not always exact repeats. Identical values can stand only once. Screen size: about 420,000 compounds; about 50,000 (12%) were called active. The shares of active, inactive and inconclusive entries below differ from those in the screen. Calls come from the whole dose curve; as a rule, active = well fitted inhibition curve with a large enough effect; inconclusive = small, poorly fitted or top-dose-only effect; inactive = flat fitted curve, though single readings scatter. Potencies of inconclusive entries are left out as doubtful fits.

test: qHTS for Inhibitors of human tyrosyl-DNA phosphodiesterase 1 (TDP1): qHTS in cells in presence of CPT; details: chicken DT40 Tdp1-/-;hTDP1 cells + 20 nM CPT, ATP luminescence, 48 h; series mostly up to 46.2 µM; note: nearly all actives have a fitted effect of over 55% in size
How it was run: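 Cell growth measured by CellTiter-Glo luminescence after a minimum 48 h, 37 C compound exposure with 20 nM CPT in Tdp1-knockout DT40 cells stably expressing hTDP1, seeded 400/well; qHTS titration format.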
Potency is the fitted concentration of half-maximal effect; tags give direction and shape of the fitted curve.

| Compound | Potency |
| --- | --- |
| O=c1c[n+]([O-])c2ccccc2n1OCc1ccccn1 | inconclusive [inhibitor, single point] |
| COc1ccc(S(=O)(=O)N2CCCCCC2)cc1NC(=O)Cc1cccc(C(F)(F)F)c1 | inconclusive [inhibitor, single point] |
| CC(C)NS(=O)(=O)c1ccc(OCC(=O)Nc2ccc(F)cc2)cc1 | inconclusive [inhibitor, partial curve] |
| Cc1ccc(CCN2CC(C(=O)NC3CCC(C)CC3)CC2=O)cc1 (centres undefined) | inactive |
| Cc1ccc(NC(=O)/C=C/c2cccs2)c([N+](=O)[O-])c1 | active: 13 µM |
| Cc1cc(C(=O)NCCN2CCOCC2)ccc1[N+](=O)[O-] | inactive |
| Cc1ccc2c(=O)cc(C(=O)NC3CCS(=O)(=O)C3)oc2c1 (centres undefined) | inactive |
| COc1cc(NC(=O)c2sc3ncn(CC(=O)N4CCCCC4C)c(=O)c3c2C)cc(OC)c1OC (centres undefined) | inconclusive [inhibitor, single point] |
| COCC(C)n1c(SCC(=O)NCCC2=CCCCC2)nc2ccccc2c1=O (centres undefined) | inconclusive [inhibitor, single point] |
| COc1ccccc1NC(=O)C(C)OC(=O)CCCOc1ccccc1 (centres undefined) | inactive |
| Cc1cc(/C=C(/C#N)C(=O)Nc2ccc(Cl)cc2)c(C)n1-c1cccnc1 | inactive |
| CNc1nc(-c2ccc(Cl)cc2)cs1 | inactive |
| O=S(=O)(c1ccc(Cl)cc1)N1CCN(c2nc(Nc3cc(Cl)ccc3O)nc3ccccc23)CC1 | inconclusive [inhibitor, single point] |
| COc1ccc(CNCCC2(C(C)C)CCOC(C)(C)C2)cc1 (centres undefined) | inactive |
| CC(C)[C@H](NC(=O)c1cccc(S(=O)(=O)N2CCOCC2)c1)C(=O)Nc1nc2ccccc2s1 | inconclusive [inhibitor, single point] |
| COc1ccc(S(=O)(=O)N2CCCCCC2)cc1C(=O)N1CCN(c2ccccc2O)CC1 | active: 14.6 µM |
| CCOC(=O)C1CCCN(C(=O)Cn2nc(CC)n3c(cc4occc43)c2=O)C1 (centres undefined) | inconclusive [inhibitor, single point] |
| COc1ccc(OC)c(NC(=O)C2(C)CCN2Cc2ccccc2OC(F)F)c1 (centres undefined) | inconclusive [inhibitor, single point] |
| CCCCn1c(O)c2n(c1=O)Cc1ccccc1N=C2c1ccccc1 | inconclusive [inhibitor, full curve, poor fit] |
| Cc1ccc(C)c(N2CCN(CCCNC(=O)Nc3ccc(Cl)cc3)CC2)c1 | active: 7.31 µM |
| O=C1/C(=C/c2ccccc2)CN(C(=O)CCN2CCOCC2)C/C1=C\c1ccccc1 | active: 1.64 µM |
| Cc1cccc(NC(=O)C2CCCN(c3nc4ccccc4s3)C2)c1C (centres undefined) | inconclusive [inhibitor, single point] |
| COC(=O)c1cc(NC(=O)c2cc3ccccc3o2)cc(C(=O)OC)c1 | inconclusive [inhibitor, single point] |

| Compound | Potency |
| --- | --- |
| COc1ccccc1-c1nc(NCCN2CCOCC2)c2ccccc2n1 | inactive |
| Cc1ccc([C@H]2N[C@]3(CCCN(Cc4ccc(F)cc4)C3=O)[C@H]3C(=O)N(C)C(=O)[C@@H]23)cc1 | inconclusive [inhibitor, partial curve] |
| Cc1ccc(N(C)S(=O)(=O)c2cccc(C(=O)Nc3nnc(C4CC4)s3)c2)cc1 | inactive |
| CSc1ccccc1C(=O)Nc1cccc([N+](=O)[O-])c1C | inactive |
| CCOC(=O)c1c(N2C(=O)CC(Sc3ccccc3C(=O)O)C2=O)sc2c1CCCC2 (centres undefined) | active: 14.6 µM |
| CCOC(=O)c1nn(-c2ccc(OCC)cc2)c2nc(-c3cccc(OC)c3)c(C#N)c(=O)n12 | inconclusive [inhibitor, partial curve] |
| N=C1S/C(=C\c2ccc(-c3ccccc3C(=O)O)o2)C(=O)N1c1ccc2c(c1)OCO2 | inactive |
| C#CCN(C[C@@H]1[C@@H](OC(=O)NC2CC2)[C@@H](OC(=O)NC2CC2)CN(C(=O)OC(C)C)N1C(=O)OC(C)C)S(=O)(=O)c1ccc(C)cc1 | inconclusive [inhibitor, single point] |
| CCN(CC)S(=O)(=O)c1ccc2c(c1)c(=O)c(C(=O)NCCCN(C)c1ccccc1)cn2C | inactive |
| COc1ccc(S(=O)(=O)N2CCN(Cc3cccc(Cl)c3)CC2)cc1 | inconclusive [inhibitor, single point] |
| Cc1ccc(C(=O)Nc2ccc3nc(N4CCCCC4)cc(C)c3c2)cc1F | inconclusive [inhibitor, single point] |
| COc1ccccc1NC(=O)Nc1nc(CC(=O)Nc2ccccc2F)cs1 | inconclusive [inhibitor, partial curve, poor fit] |
| Cc1ccc(CCNC(=O)c2ccc(CS(=O)(=O)Cc3ccccc3F)o2)cc1 | inconclusive [inhibitor, single point] |
| OC(c1ccc2ccccc2c1)c1ncc(-c2cccc3ccccc23)[nH]1 (centres undefined) | inconclusive [inhibitor, single point] |
| CCn1c(SCC(N)=O)nc2sc3c(c2c1=O)CCN(C)C3 | active: 23.1 µM |
| O=C1c2ccccc2C(c2nnnn2-c2ccc3c(c2)OCCO3)N1Cc1cccs1 (centres undefined) | inconclusive [inhibitor, single point] |
| COc1ccc(OC)c(NC(=O)CNC(=O)c2ccc([N+](=O)[O-])cc2)c1 | inconclusive [inhibitor, partial curve] |
| O=S(=O)(Nc1ccc(Cl)cc1)c1cccc(S(=O)(=O)c2ccc(Cl)c(Cl)c2)c1 | inconclusive [inhibitor, partial curve, poor fit] |
| OC(COCc1ccco1)CN1CCN(c2ccccc2)CC1 (centres undefined) | inactive |
| COc1cccc(-c2sc3ccc(OC)cc3c2-c2ccc(C(N)=O)cc2)c1 | inconclusive [inhibitor, partial curve] |
| CC(=O)c1ccc(N2C(=O)N(Cc3cc(C)ccc3C)c3ccccc3S2(=O)=O)cc1 | active: 23.1 µM |
| NC(=NCc1ccc(Cl)cc1Cl)NC(=O)c1nc(Cl)c(N)nc1N | active: 7.31 µM and active: 6.23 µM |
| COc1ccccc1OC(C)C(=O)Nc1nc(-c2ccc(S(=O)(=O)N3CCOCC3)cc2)cs1 (centres undefined) | inconclusive [inhibitor, single point] |

| Compound | Potency |
| --- | --- |
| Cc1ccc(S(=O)(=O)Nc2cccc(NC(=O)CN3CCCCC3)c2)cc1 | inconclusive [inhibitor, partial curve] |
| COc1ccc(NC(=O)Cc2noc3ccc(C)cc23)cc1Cl | inconclusive [inhibitor, partial curve] |
| C(=NN=C1c2ccccc2-c2ccccc21)c1c[nH]c2ccccc12 | inconclusive [inhibitor, single point] |
| O=c1[nH]c2ccc(Cl)cc2c(O)c1-c1ccccc1 | inactive |
| Cc1cc(=O)[nH]c(-n2nc(C)c(Oc3ccccc3O)c2C)n1 | inconclusive [inhibitor, single point] |
| CCOc1ccccc1O[C@H](c1ccccc1)[C@H]1CNCCO1 | active: 29.9 µM |
| COc1ccc(S(=O)(=O)NN(C)c2nc(C(F)(F)F)nc3ccccc23)cc1 | inconclusive [inhibitor, single point] |
| O=C(Cc1ccccc1)NCC(=O)N/N=C/c1ccc([N+](=O)[O-])s1 | active: 23.1 µM |
| Cc1ccc(NC(=O)c2cc(S(=O)(=O)Nc3ccc(C)cc3)cs2)cc1 | active: 23.1 µM |
| C=CCc1ccccc1OCC(O)CN1CCN(c2ccccc2F)CC1 (centres undefined) | inconclusive [inhibitor, single point] |
| Cn1cc(CN2CCC(CO)CC2)c(-c2ccc(Oc3ccccc3)cc2)n1 | inconclusive [inhibitor, single point] |
| COc1cc2nc(NC3CCN(C)CC3)nc(N3CCCN(C)CC3)c2cc1OC | inconclusive [inhibitor, single point] |
| COc1cccc(N2CC(NC(=O)C3CC3)CC2=O)c1 (centres undefined) | inactive |
| Cn1ncc([N+](=O)[O-])c1C(=O)n1nnc2ccccc21 | inactive |
| CC(=O)c1cn(N2CCCCC2)c(=O)[nH]c1=O | inactive |
| O=C(C[C@@H]1C/C=C\CCCC(=O)OC[C@@H](c2ccccc2)NC1=O)NCCO | inactive |
| CC(OC(=O)Cn1cc(C(F)(F)F)ccc1=O)C(=O)NC(C)c1ccc(Cl)cc1Cl (centres undefined) | inconclusive [inhibitor, single point] |
| O=C(c1ccc(Br)cc1)N1CCN(S(=O)(=O)c2ccccc2)CC1 | inconclusive [inhibitor, partial curve, poor fit] |
| Cc1ccc(OCC(=O)Nc2cccc(S(=O)(=O)N3CCCCCC3)c2)c([N+](=O)[O-])n1 | inconclusive [inhibitor, single point] |
| Cc1nc2c(c(=O)n1CCC1=CCCCC1)c1nc3ccccc3nc1n2/N=C/c1ccco1 | active: 16.4 µM |
| CCOc1ccc(NS(=O)(=O)c2ccc(C(=O)N(C)CC(=O)Nc3ccccc3Br)cc2)cc1 | inconclusive [inhibitor, partial curve] |
| CC(=O)Nc1ccc(NS(=O)(=O)c2c(Cl)cccc2Cl)cc1 | inconclusive [inhibitor, single point] |
| CCOc1ccc2c(c1)c(=O)c(C(=O)c1ccc(CC)cc1)cn2CC(=O)Nc1ccccc1C | inconclusive [inhibitor, single point] |
